From publication PMC4615246 (Nucleus, 2015)

Columns and labels:
LacI-CFP-Nup155 = target: T1, LacI-CFP-Nup155 (human, UniProt O75694 1-1391); test: LacI/LacO array recruitment in cells
T1 sequence: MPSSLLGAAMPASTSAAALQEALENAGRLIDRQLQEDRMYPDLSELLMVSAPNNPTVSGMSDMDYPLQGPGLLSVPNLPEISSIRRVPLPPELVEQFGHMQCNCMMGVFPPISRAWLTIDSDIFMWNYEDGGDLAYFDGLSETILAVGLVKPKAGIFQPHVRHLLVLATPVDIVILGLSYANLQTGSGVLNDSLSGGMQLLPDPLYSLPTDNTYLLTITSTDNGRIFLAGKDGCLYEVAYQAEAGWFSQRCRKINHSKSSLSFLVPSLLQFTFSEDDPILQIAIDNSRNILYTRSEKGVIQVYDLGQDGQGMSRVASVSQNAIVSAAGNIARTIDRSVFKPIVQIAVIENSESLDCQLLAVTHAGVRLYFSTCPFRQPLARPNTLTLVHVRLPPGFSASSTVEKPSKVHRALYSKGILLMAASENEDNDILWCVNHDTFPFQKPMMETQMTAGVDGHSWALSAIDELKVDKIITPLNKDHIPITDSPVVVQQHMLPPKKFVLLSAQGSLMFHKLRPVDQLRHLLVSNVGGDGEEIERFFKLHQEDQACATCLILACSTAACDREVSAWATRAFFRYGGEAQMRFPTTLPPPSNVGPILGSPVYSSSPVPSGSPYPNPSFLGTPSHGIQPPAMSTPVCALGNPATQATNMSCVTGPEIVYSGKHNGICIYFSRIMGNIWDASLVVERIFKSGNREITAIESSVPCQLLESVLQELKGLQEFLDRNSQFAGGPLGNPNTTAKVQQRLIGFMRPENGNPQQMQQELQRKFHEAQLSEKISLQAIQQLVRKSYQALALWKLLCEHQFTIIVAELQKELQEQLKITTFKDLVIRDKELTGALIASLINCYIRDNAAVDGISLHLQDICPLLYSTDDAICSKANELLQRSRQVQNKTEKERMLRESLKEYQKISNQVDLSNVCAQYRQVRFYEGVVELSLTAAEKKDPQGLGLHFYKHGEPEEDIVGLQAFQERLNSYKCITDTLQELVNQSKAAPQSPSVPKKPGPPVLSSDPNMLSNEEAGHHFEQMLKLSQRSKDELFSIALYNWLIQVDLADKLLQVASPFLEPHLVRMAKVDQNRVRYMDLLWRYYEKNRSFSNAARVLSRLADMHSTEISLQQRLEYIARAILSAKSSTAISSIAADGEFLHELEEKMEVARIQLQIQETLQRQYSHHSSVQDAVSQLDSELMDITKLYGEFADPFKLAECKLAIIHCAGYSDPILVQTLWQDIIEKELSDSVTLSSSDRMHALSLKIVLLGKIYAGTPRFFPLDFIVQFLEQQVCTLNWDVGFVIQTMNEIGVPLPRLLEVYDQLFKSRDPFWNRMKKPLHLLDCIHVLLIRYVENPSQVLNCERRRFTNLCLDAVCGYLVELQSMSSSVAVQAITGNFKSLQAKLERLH

LacI-CFP-Nup58 = target: T2, LacI-CFP-Nup58 (human, UniProt Q9BVL2 1-599); test: LacI/LacO array recruitment in cells
T2 sequence: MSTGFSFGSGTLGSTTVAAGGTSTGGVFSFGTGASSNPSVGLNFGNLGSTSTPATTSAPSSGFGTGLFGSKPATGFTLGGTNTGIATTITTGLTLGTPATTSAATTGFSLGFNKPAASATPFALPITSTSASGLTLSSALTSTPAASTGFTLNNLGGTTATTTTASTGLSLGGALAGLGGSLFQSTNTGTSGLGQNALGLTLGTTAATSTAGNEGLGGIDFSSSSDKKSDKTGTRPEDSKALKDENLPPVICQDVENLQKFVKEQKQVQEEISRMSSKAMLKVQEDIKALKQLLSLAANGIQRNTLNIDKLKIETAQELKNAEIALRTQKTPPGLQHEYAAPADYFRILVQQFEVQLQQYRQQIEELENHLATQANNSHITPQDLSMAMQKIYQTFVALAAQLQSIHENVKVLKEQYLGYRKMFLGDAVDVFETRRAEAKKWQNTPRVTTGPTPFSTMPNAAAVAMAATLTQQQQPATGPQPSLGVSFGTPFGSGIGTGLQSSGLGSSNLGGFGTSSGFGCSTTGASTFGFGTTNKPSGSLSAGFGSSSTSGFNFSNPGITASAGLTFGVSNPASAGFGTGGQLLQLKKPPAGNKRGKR

B1: Pom121 (endogenous) (natural protein)
chain: MSPAAAAAGAGERRRPIASVRDGRGRGCGGPARAVLLGLSLVGLLLYLVPAAAALAWLTVGATAAWWGLSREPRGSRPLSSFVRKARHRRPLSSFVRKARHRRTLFASPLAKSTANGNLLEPRTLLEGPDPAELLLMGSYLGKPGPPQPAAAPEGQDLRDRPGRRPPARPAPRSPPPRSPPPRSPPPSPPTHRAHHVYPSLPTPLLRPSRRPSPRDCGTLPNRFVITPRRRYPIHQAQYSCLGVLPTVCWNGYHKKAVLSPRNSR[about 450 residues not shown]KQSFLFGTQNTSPSSPAAPAASSAPPMFKPIFTAPPKSEKEGPTPPGPSVTATAPSSSSLPTTTSTTAPTFQPVFSSMGPPASVPLPAPFFKQTTTPATAPTTTAPLFTGLASATSAVAPITSASPSTDSASKPAFGFGINSVSSSSVSTTTSTATAASQPFLFGAPQASAASFTPAMGSIFQFGKPPALPTTTTVTTFSQSLHTAVPTATSSSAADFSGFGSTLATSAPATSSQPTLTFSNTSTPTFNIPFGSSAKSPLPSYPGANPQPAFGAAEGQPPGAAKPALAPSFGSSFTFGNSAAPAAAPTPAPPSMIKVVPAYVPTPIHPIFGGATHSAFGLKATASAFGAPASSQPAFGGSTAVFFGAATSSGFGATTQTASSGSSSSVFGSTTPSPFTFGGSAAPAGSGSFGINVATPGSSTTTGAFSFGAGQSGSTATSTPFAGGLGQNALGTTGQSTPFAFNVSSTTESKPVFGGTATPTFGLNTPAPGVGTSGSSLSFGASSAPAQGFVGVAPFGSAALSFSIGAGSKTPGARQRLQARRQHTRKK
percent of transfected cells showing colocalization (LacI-CFP-Nup155): 56%
percent of transfected cells showing colocalization (LacI-CFP-Nup58): 14%
